Common to all, as to assay: Primary Screen for Target Class Profiling of Small Molecule Inhibitors of Methyltransferases
The target in assay [1] is Glycine N-methyltransferase (Homo sapiens) (UniProt Q14749). The following applies: purified enzyme, MTase-Glo SAH luminescence; measured here: GNMT inhibition; at 40 µM; stronger effect = lower value. Put shortly:
(§1)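 Each enzyme was reacted with SAM and its substrate, with compounds tested once at 40 uM; SAH formed was read by MTase-Glo luminescence.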

Assay [2] has as its target Guanidinoacetate N-methyltransferase (Homo sapiens) (UniProt Q14353). The following applies: purified enzyme, MTase-Glo SAH luminescence; measured here: GAMT inhibition; at 40 µM; stronger effect = lower value. Put shortly:
as §1

For assay [3], the target named is Histamine N-methyltransferase (Homo sapiens) (UniProt P50135). The conditions noted are these: purified enzyme, MTase-Glo SAH luminescence; measured here: HNMT inhibition; at 40 µM; stronger effect = lower value. Put shortly: as §1
In assay [4] the target is Nicotinamide N-methyltransferase (Homo sapiens) (UniProt P40261). The conditions noted are these: purified enzyme, MTase-Glo SAH luminescence; measured here: NNMT inhibition; at 40 µM; stronger effect = lower value. In a few lines:
as §1

In assay [5] the target is Phenylethanolamine N-methyltransferase (Homo sapiens) (UniProt P11086). The following applies: purified enzyme, MTase-Glo SAH luminescence; measured here: PNMT inhibition; at 40 µM; stronger effect = lower value. In a few lines:
as §1

We go through 30 compounds from PubChem BioAssay AID1745853 (National Center for Advancing Translational Sciences (NCATS), 2022).

SMILES strings stand for the structures. This is one part of the list. Further columns of the screen follow, without active or inactive calls.
% is scaled to controls: 0 for no effect and ±100 for the full control effect.

As to `CCCC(N[C@@H](C)C(=O)N1[C@H](C(=O)O)C[C@@H]2CCCC[C@@H]21)C(=O)OCC` (stereo partly drawn), the activity change, negative = inhibition in assay [1] was 5.09%; in assay [2] it was 0.755%; in assay [3] it was 3.59%; in assay [4] it was -11.3%; in assay [5], -0.851%.
Taken in the same sequence, the figures for `C[C@H]1[C@H](C)CC[C@]2(C(=O)O)CC[C@]3(C(=O)O)C(=CCC4[C@@]5(C)CC[C@H](O[C@@H]6O[C@H](C)[C@@H](O)[C@H](O)[C@H]6O)C(C)(C)C5CC[C@]43C)[C@H]12` (stereo partly drawn) were 4.1%, 6.03%, 9.51%, -7.09% and 1.89%.
For `COc1ccc(-c2nnn3c2nc(N2CCCC(C)C2)c2ccccc23)cc1` (stereo not drawn), the activity change, negative = inhibition in assay [1] was -4.94%; in assay [2] it was 0%; in assay [3], -2.77%; in assay [4], -2.71%; in assay [5], -24.6%.
The corresponding values for `Cc1noc(-c2ccc(-c3ccc(CC(=O)O)cc3)cc2)c1NC(=O)O[C@H](C)c1ccccc1` are -13.6%, -6.05%, 0.627%, -23.8% and -10.1%.
The corresponding values for `CCCn1c(=O)c2cc(F)ccc2n2c(SCC(=O)Nc3ccc(OC)cc3)nnc12` are -3.43%, 5.65%, 3.14%, -3.57% and -0.638%.
The corresponding values for `Cc1cccc(N(C)S(=O)(=O)c2ccc3[nH]c4c(c3c2)CCCC4)c1` are 3.29%, 2.58%, 2.02%, -4.97% and -0.595%.
As for `CCOc1ccc(OCC)c(NS(=O)(=O)c2ccc3[nH]c(=O)[nH]c3c2)c1`, the activity change, negative = inhibition was 10% in assay [1]; 0% in assay [2]; 8.64% in assay [3]; -4.52% in assay [4]; -5.1% in assay [5].
Turning to `O=S(=O)(NCc1cccnc1-c1ccc(F)cc1)c1ccc(F)cc1`, the activity change, negative = inhibition is 3.52% in assay [1]; 1.14% in assay [2]; 1.08% in assay [3]; 0.285% in assay [4]; -1.83% in assay [5].
On to `Cc1ccc(-c2cn(C3CN(C(=O)C4CCC4)C3)nn2)cc1`, for which the activity change, negative = inhibition in assay [1] was -2.31%; in assay [2], -1.88%; in assay [3], 1.65%; in assay [4] it was -1.26%; in assay [5] it was 15.6%.
Taken in the same sequence, the figures for `O=C1NC(Cc2c[nH]c3ccccc23)C(=O)NC1Cc1cnc[nH]1` (stereo not drawn) were 1.48%, 7.24%, 9.12%, -5.2% and 8.54%.
In the case of `O=C(C1CCC1)N1CCC2(CC1)CC(N1CCCCC1)CCO2` (stereo not drawn), the activity change, negative = inhibition is -3.65% in assay [1]; -1.12% in assay [2]; -22.8% in assay [3]; -3.27% in assay [4]; 1.65% in assay [5].
Take `CC(=O)N1CCC(C(=O)N2CCn3nc(Cc4ccccc4)cc3C2)CC1`: the activity change, negative = inhibition is -7.38% in assay [1]; -7.65% in assay [2]; -3.6% in assay [3]; -6.17% in assay [4]; -5.53% in assay [5].
Taken in the same sequence, the figures for `O=C(CCCc1nnc2n3nc(-c4ccccc4)nc3c3ccccc3n12)NCCCN1CCCCC1` were -11%, -3.34%, -48.1%, -0.646% and -14.5%.
For `COc1ccccc1CNC(=O)C1(C)Cn2cnc(C(=O)NC3CCCC3)c2C(=O)N1C1CC1` (stereo not drawn), the activity change, negative = inhibition in assay [1] is -13.8%; in assay [2], -3.14%; in assay [3], -10.2%; in assay [4], -12.8%; in assay [5], -10%.
Taken in the same sequence, the figures for `O=C(c1cccnc1)N1CCN(c2nnc3ccc(Cl)cn23)CC1` were -7.18%, 0.083%, -0.536%, 0.641% and 1.05%.
`O=C(Cn1nc2nc(Nc3ccc(F)cc3)ccn2c1=O)NCc1ccc2c(c1)OCO2`: the activity change, negative = inhibition in assay [1] turned out to be 3.84%; in assay [2], 0.58%; in assay [3], 11.7%; in assay [4], 1.25%; in assay [5] it was 6.23%.
Taken in the same sequence, the figures for `CC(c1ccc(-c2cc(N)ncn2)cc1)N1CCCCC1` (stereo not drawn) were -2.01%, 0.357%, -29.8%, -5.9% and -11.1%.
Regarding `CCCCNc1nc(N)c2[nH]c(=O)n(Cc3ccc(OCCN(C)C)nc3)c2n1`, the activity change, negative = inhibition is -17.9% in assay [1]; 0.762% in assay [2]; -17.5% in assay [3]; -18.2% in assay [4]; -1.33% in assay [5].
As to `COC(=O)C(C)Oc1ccc2c(-c3ccccc3)cc(=O)oc2c1` (stereo not drawn), the activity change, negative = inhibition was -2.77% in assay [1]; 4.88% in assay [2]; 7.8% in assay [3]; -7.38% in assay [4]; -10.5% in assay [5].
Turning to `CCCCN1C(=O)c2ccc(-c3ccco3)n2CC1(C)C(=O)NC1CCCC1` (stereo not drawn), the activity change, negative = inhibition in assay [1] is 1.78%; in assay [2] it was 2.37%; in assay [3], 8.82%; in assay [4] it was 8.84%; in assay [5], 1.95%.
In the case of `Cc1ccc(CCNC(=O)CCCc2nnc3n4nc(-c5ccccc5)nc4c4ccccc4n23)cc1`, the activity change, negative = inhibition was 3.74% in assay [1]; 5.03% in assay [2]; 9.68% in assay [3]; 5.94% in assay [4]; -1.17% in assay [5].
The corresponding values for `CCCSCCCN1C(=O)c2cc3occc3n2CC1(C)C(=O)NC1CCCCCCC1` (stereo not drawn) are -3.25%, 0%, 3.64%, -0.815% and -3.99%.
Turning to `CCCCOc1ccc(CC/C=C2\SC(=O)N(CCN)C2=O)cc1`, the activity change, negative = inhibition in assay [2] was 15.7%; in assay [4], -23.5%; in assay [5] it was -0.562%.
Consider `Cn1c(=O)[nH]cc(CC(=O)N2C[C@H](C3CC3)[C@@H](N)C2)c1=O`, for which the activity change, negative = inhibition in assay [1] is -5.92%; in assay [2], -10.1%; in assay [3] it was -3.58%; in assay [4], -5.18%; in assay [5] it was -7.92%.
The corresponding values for `CN(C)c1ccc(CN2CCC(N3CCCCCC3=O)CC2)cc1` are -5.63%, -4.39%, -6.66%, -12.8% and -10.1%.
`CN(C)Cc1cc(C[C@@H]2CC[C@H](O)[C@@H](CNC(=O)N3CCOCC3)O2)no1`: the activity change, negative = inhibition in assay [1] was -1.86%; in assay [2], 0.158%; in assay [3] it was 0.567%; in assay [4], -2%; in assay [5] it was -6.27%.
Turning to `CCCN(C/C=C/c1ccccc1)C(=O)c1cccc(OCC(N)=O)c1`, the activity change, negative = inhibition in assay [1] is -5.63%; in assay [2], -6.3%; in assay [3], -3.02%; in assay [4], -13.2%; in assay [5], -0.592%.
The corresponding values for `CC(C)c1nc2c(c(-c3ccc(O)cc3)n1)CCN(CC1CCCCC1)CC2` are -8.11%, -10.7%, -15.5%, -30.4% and -19.1%.
The corresponding values for `C[C@]12C[C@H](O)[C@H]3[C@@H](CCC4=CC(=O)CC[C@@]43C)[C@@H]1CC[C@@H]2C(=O)CO` are -15.2%, 7.89%, -0.005%, -8.65% and 7.84%.
Taken in the same sequence, the figures for `CCCn1c(=O)c2ccc(C(=O)NC(C)CC)cc2n2c(SCC(=O)Nc3ccccc3F)nnc12` (stereo not drawn) were 3.84%, 0%, 6.54%, -1.96% and 5.51%.
